# Laboratory results taken from PubChem BioAssay AID1671194 (National Center for Advancing Translational Sciences (NCATS), 2021).
# The whole screen tested about 140,000 compounds, of which about 240 (0.17%) were called active. The shares of active, inactive and inconclusive entries below differ from those in the screen. The call rests on the fitted dose curve; in most records, active means well fitted inhibition curve with a large enough effect; inconclusive means small, poorly fitted or top-dose-only effect; inactive means no such curve, though single readings can be large or run the other way. Potencies beside an inconclusive call are fits to weak or partial responses and may not hold up.
# Test: Primary qHTS assay for inhibitors of alpha-synuclein gene (SNCA) expression; further: nearly all actives have a fitted effect of over 45% in size
# Settings: HEK-293 SNCA-luciferase knock-in, luminescence, 24 h; series mostly up to 57.2 µM
# Potency means the concentration at half of the fitted maximal effect; tags describe the fitted curve by direction and shape.
row,Structure (SMILES),Potency
1,COc1ccc(CC(=O)N2C3CCCC2CC(=O)C3)cc1,"inconclusive: 12.6 µM [inhibitor, single point]"
2,CN(C)C(=O)N1CCN(c2ccc(Cl)nn2)C(=O)C1,"inconclusive: 11.2 µM [inhibitor, single point]"
3,COc1cccc(CNC(=O)CC2C(=O)NCCN2CC(C)C)c1OC (centres undefined),"inconclusive: 2 µM [inhibitor, full curve]"
4,CC(C)c1ccc(NC(=O)CN2C(=O)COc3ccc(S(=O)(=O)N4CCOCC4)cc32)cc1,"inconclusive: 39.8 µM [inhibitor, single point]"
5,O=C(CNC(=O)c1cccc(-c2ccc(C(F)(F)F)cc2)c1)NCc1cccc(Cl)c1,"inconclusive: 22.4 µM [inhibitor, single point]"
6,O=C(NCc1cc(F)ccc1F)c1cccnc1N1CC2CC(C1)[C@H]1CCCC(=O)N1C2 (some centres undefined),inactive
7,COCCNC(=O)c1cc(-c2ccc(OC)cc2)nc2c1c(C1CCNC1)nn2C (centres undefined),inactive
8,CCc1ccc(C2c3c(-c4ccccc4)n[nH]c3C(=O)N2c2ccc(C(=O)O)cc2)cc1 (centres undefined),"inconclusive: 1 µM [inhibitor, full curve, poor fit]"
9,CCCS(=O)(=O)N[C@H]1CO[C@H]2[C@@H]1OC[C@H]2OC(=O)Nc1ccc(C(C)=O)cc1,"inconclusive: 56.2 µM [inhibitor, single point]"
10,O=C(Cc1ccccc1Br)N1CCCN(c2cc(-c3ccc(F)cc3)[nH]n2)CC1,"inconclusive: 8.91 µM [inhibitor, partial curve, poor fit]"
11,COc1ccc(C(=O)N2CCC3(CC2)CCN(c2ccccn2)CC3)cc1,"inconclusive: 39.8 µM [inhibitor, single point]"
12,Cc1ccc(C)c(CNC(=O)CCc2conc2-c2ccc(F)cc2)c1,inactive
13,O=C(CSc1nccn1Cc1ccc(Cl)cc1)Nc1ccc2c(c1)OCO2,"inconclusive: 39.8 µM [inhibitor, single point]"
14,NCCc1noc(-c2cccnc2)n1,inactive
15,Cc1nc(C(=O)NCC(=O)O)c(O)c2ccc(Oc3ccccc3)cc12,inactive
16,CCOc1ccc(S(=O)(=O)Nc2cc(Cl)ccc2OC)c2cccnc12,"inconclusive: 3.55 µM [inhibitor, full curve, poor fit]"
17,Cc1nccn1-c1ccc(CNC(=O)c2cn(-c3ccccc3)nn2)cc1,"inconclusive: 5.62 µM [inhibitor, single point]"
18,FC(F)(F)c1ccc(CN2CCC3(CC2)CC(c2cccnc2)=NO3)cc1,"inconclusive: 35.5 µM [inhibitor, single point]"
19,Cc1cc(OC2CN(Cc3cccc4ccccc34)C2)ccc1F,inactive
20,COc1cc([C@@H]2c3cc4c(cc3[C@@H](O[C@@H]3O[C@@H]5CO[C@@H](C)O[C@@H]5[C@H](O)[C@@H]3O)[C@H]3COC(=O)[C@H]23)OCO4)cc(OC)c1O,"inconclusive: 0.482 µM [inhibitor, full curve]"
21,O=C1COCC2(CN1Cc1c(F)cccc1Cl)CN(c1ccccc1)C2,"inconclusive: 12.6 µM [inhibitor, single point]"
22,O=c1c(-c2ccc(F)cc2)nc2cncnc2n1Cc1ccc(F)cc1,"inconclusive: 39.8 µM [inhibitor, single point]"

row,Structure (SMILES),Potency
1,Cc1ccc(CNC(=O)CCCN2C(=O)COc3ccc(C)cc32)cc1,inactive
2,CN(c1cc(=O)c2ccnc(-c3ccc(F)c(Cl)c3)c2o1)C1CCOCC1,inactive
3,COc1ccccc1-c1cccc(C(=O)N2CCN([S+](=O)([O-])c3c(C)noc3C)CC2)c1,"inconclusive: 14.1 µM [inhibitor, partial curve]"
4,CCN1c2cc(C(=O)NCc3ccc(F)cc3Cl)ccc2C(=O)N2CCCCCC21 (centres undefined),"inconclusive: 10 µM [inhibitor, partial curve, poor fit]"
5,Cc1cc(C)cc(NC(=O)C2CCN(S(=O)(=O)c3cccc(-c4noc(C)n4)c3)CC2)c1,"inconclusive: 39.8 µM [inhibitor, single point]"
6,c1ccc(Nc2cc3c(cn2)CN(Cc2ccsc2)CCN3)cc1,inactive
7,CCN(CC)CCNC(=O)c1ccc(-n2c(-c3ccccc3)cc3c2CCCC3)cc1,"inconclusive: 39.8 µM [inhibitor, single point]"
8,Cc1ccc(-c2noc([C@@H]3Cc4nc[nH]c4CN3Cc3cccc(C#N)c3)n2)cc1,"inconclusive: 1.26 µM [inhibitor, full curve]"
9,CN1CCN(C(=O)c2ccc3c(c2)NC(C)(CCCCc2ccccc2)CO3)CC1=O (centres undefined),"inconclusive: 12.6 µM [inhibitor, single point]"
10,CCOC(=O)C1(Cc2ccccc2F)CCCN(C(=O)CCc2c[nH]c3ccccc23)C1 (centres undefined),"inconclusive: 39.8 µM [inhibitor, partial curve, poor fit]"
11,CC1(c2ccccc2)N(Cc2ccccc2C#N)C(=O)OC12CCN(C(=O)c1cccc(O)c1)CC2 (centres undefined),"inconclusive: 6.31 µM [inhibitor, full curve, poor fit]"
12,O=C(c1cccs1)N1CCC(n2cc(-c3nc(-c4ccccc4)no3)nn2)CC1,inactive
13,COc1ccc(-c2cnc(Nc3ccc(CN4CCN(C)CC4)cc3)c3c2CCO3)cn1,inactive
14,O=C1CO[C@H]2CCN(Cc3cccnc3)CC[C@@H]2N1Cc1ccccc1,inactive
15,COc1ccccc1Nc1ccnc(N2CCC(C(=O)NCCc3ccc(F)cc3)CC2)n1,"inconclusive: 14.1 µM [inhibitor, single point]"
16,NC(=O)NCCC(=O)N1CCc2onc(C(c3ccccc3)c3ccccc3)c2C1,"inconclusive: 39.8 µM [inhibitor, single point]"
17,O=C(NCC1CC1)C1c2ccccc2CC(=O)N1Cc1ccccc1 (centres undefined),"inconclusive: 5.62 µM [inhibitor, single point]"
18,O=C1NC(=NC2CCCC2)C2(CCCN(Cc3ccc(F)cc3)C2)N1c1cc(F)cc(F)c1 (centres undefined),"inconclusive: 11.2 µM [inhibitor, partial curve, poor fit]"
19,Cc1cccc(-n2c(=O)c3c(c4cc(C)ccc4n3C)n(CC(=O)Nc3ccc(C)cc3C)c2=O)c1,"inconclusive: 1.41 µM [inhibitor, partial curve, poor fit]"
20,CC#CCn1cc2c3c(cccc31)[C@H](CC(C)C)N[C@H](C(=O)NC1CC1)C2,"inconclusive: 25.1 µM [inhibitor, partial curve, poor fit]"
21,Cc1ccc(Cn2c(SCc3ccc(C(=O)NC4CCCC4)cc3)nc3ccncc32)cc1,"inconclusive: 39.8 µM [inhibitor, single point]"
22,CCn1c(=O)cc(OCC(=O)Nc2ccc(C)c(F)c2)c2ccccc21,inactive

row,Structure (SMILES),Potency
1,O=C(c1cnc(Cc2c(Cl)cccc2Cl)[nH]c1=O)N1CCCCC1,inactive
2,COc1ccccc1-c1nccc2c(=O)cc(C3=CCOCC3)oc12,inactive
3,CN1CCN([C@H]2[C@@H]3OC[C@@H](O3)[C@@H](NC(=O)Nc3ccccc3)[C@@H]2O)CC1,"inconclusive: 3.98 µM [inhibitor, full curve, poor fit]"
4,O=c1[nH]c2cccnc2n1C1CC1,"inconclusive: 12.6 µM [inhibitor, full curve, poor fit]"
5,O=S(=O)(c1ccc(F)cc1)N1CCC2(CC1)CC(OCC1CC1)CCO2 (centres undefined),"inconclusive: 39.8 µM [inhibitor, single point]"
6,COc1ccc(-c2noc([C@@H]3CCCN3C(=O)Cc3ccc(F)cc3)n2)cc1,inactive
7,Cc1ccc(OCC(=O)N[C@@H]2CCOC[C@H]2Oc2cccc(F)c2)cc1C,"inconclusive: 10 µM [inhibitor, partial curve, poor fit]"
8,O=C1COc2ccc(-c3ccccc3)nc2CN1,inactive
9,CCOC(=O)c1c(C)[nH]c(C)c1S(=O)(=O)NCC(=O)N1CCN(c2cc(Cl)ccc2C)CC1,"inconclusive: 22.4 µM [inhibitor, partial curve, poor fit]"
10,CC(Oc1ccccc1)C(=O)N1CCN(Cc2cc(=O)n3nc(-c4ccccc4Cl)sc3n2)CC1 (centres undefined),"inconclusive: 39.8 µM [inhibitor, single point]"
11,COc1ccccc1CCC(=O)N1CCCC(c2[nH]ccc2C(N)=O)C1 (centres undefined),"inconclusive: 39.8 µM [inhibitor, single point]"
12,COc1ccc(NC(=O)CCCc2nnc3n(CCC(C)C)c(=O)c4sccc4n23)cc1Cl,"inconclusive: 15.8 µM [inhibitor, partial curve, poor fit]"
13,OCCc1cnc2c(-c3nc(-c4cccnn4)no3)cnn2c1,inactive
14,CCc1nc2c(c(-c3ccc(O)cc3)n1)CN(Cc1ccccc1OC)CC2,inactive
15,COc1ccc(Cn2ccc3nc(C)c(C(=O)N4CCN(c5cc(C)ccc5C)CC4)cc3c2=O)cc1,"inconclusive: 14.1 µM [inhibitor, partial curve]"
16,CN1CC(=O)N(C2CCCC2)Cc2c1ncnc2N1CCN(c2ncccn2)CC1,inactive
17,CC(C)(C)CC(=O)N[C@H]1C[C@@H](Cc2cc(CN3CCN(c4ccccc4)CC3)on2)C1(C)C,"inconclusive: 39.8 µM [inhibitor, single point]"
18,COc1ccc(-c2cc(C(F)(F)F)nc(SCCC(=O)Nc3cccc(O)c3)n2)cc1,"inconclusive: 39.8 µM [inhibitor, single point]"
19,CC(NC(=O)c1ccc2nc(Cc3ccccc3)oc2c1)c1ccccc1 (centres undefined),"inconclusive: 39.8 µM [inhibitor, single point]"
20,CCCN(C(=O)c1sc2nc3n(c(=O)c2c1C)CCCC3)c1ccccc1C,"inconclusive: 39.8 µM [inhibitor, single point]"
